# According to patent US20260216242A1 (ALMAC DISCOVERY, published 2026):
# T1: human ALPL (tissue non-specific alkaline phosphatase) expressed on the surface of CHO cells (human, UniProt P05186 18-501)
# T1 sequence (looked up): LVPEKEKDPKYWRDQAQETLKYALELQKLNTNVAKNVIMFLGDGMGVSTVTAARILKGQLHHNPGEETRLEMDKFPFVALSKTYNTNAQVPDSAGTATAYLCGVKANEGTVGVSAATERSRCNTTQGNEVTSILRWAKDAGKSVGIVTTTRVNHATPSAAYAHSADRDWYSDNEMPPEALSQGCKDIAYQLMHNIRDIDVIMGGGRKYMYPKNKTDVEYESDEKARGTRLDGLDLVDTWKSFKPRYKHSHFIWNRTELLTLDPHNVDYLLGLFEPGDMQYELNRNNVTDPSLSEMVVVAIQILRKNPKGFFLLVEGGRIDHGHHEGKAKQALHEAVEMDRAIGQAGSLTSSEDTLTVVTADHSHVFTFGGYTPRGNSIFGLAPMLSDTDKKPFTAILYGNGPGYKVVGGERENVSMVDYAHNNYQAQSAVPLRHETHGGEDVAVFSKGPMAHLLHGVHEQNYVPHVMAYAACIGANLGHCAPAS
# T2: human ALPI (intestinal alkaline phosphatase) expressed on the surface of CHO cells (human, UniProt P09923 20-503)
# T2 sequence (looked up): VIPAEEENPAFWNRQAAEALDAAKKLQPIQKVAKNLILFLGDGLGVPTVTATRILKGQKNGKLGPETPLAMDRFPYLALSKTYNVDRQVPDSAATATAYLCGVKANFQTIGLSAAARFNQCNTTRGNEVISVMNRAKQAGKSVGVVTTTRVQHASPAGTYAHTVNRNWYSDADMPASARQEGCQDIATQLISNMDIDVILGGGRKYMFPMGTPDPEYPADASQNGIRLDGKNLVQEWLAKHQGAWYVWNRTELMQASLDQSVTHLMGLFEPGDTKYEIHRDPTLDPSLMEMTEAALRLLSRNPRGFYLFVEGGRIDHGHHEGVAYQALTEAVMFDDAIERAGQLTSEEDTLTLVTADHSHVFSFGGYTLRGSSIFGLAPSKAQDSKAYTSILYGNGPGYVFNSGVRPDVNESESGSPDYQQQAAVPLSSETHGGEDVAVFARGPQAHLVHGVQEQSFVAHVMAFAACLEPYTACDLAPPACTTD
# What was measured:
# Test in all cases: cell-based or functional assay
# [1] = biological target: human ALPP (alkaline phosphatase, placental type) stably expressed on the surface of CHO cells (human, UniProt P05187 23-506)
# [2] = biological target: human ALPPL2 (alkaline phosphatase, germ cell type) stably expressed on the surface of CHO cells (human, UniProt P10696 20-503)
# [3] = biological target: T1, human ALPL (tissue non-specific …)
# [4] = biological target: human ALPPL2 (alkaline phosphatase, germ cell type) expressed on the surface of CHO cells (human, UniProt P10696 20-503)
# [5] = biological target: human ALPP (alkaline phosphatase, placental type) expressed on the surface of CHO cells (human, UniProt P05187 23-506)
# [6] = biological target: T2, human ALPI (intestinal alkaline …)
Binder,"IC50 @ 96 h (nM), cell-killing of CHO-ALPP cells (Cell Titre Glo) [1] [nM]","IC50 @ 96 h (nM), cell-killing of CHO-ALPPL2 cells (Cell Titre Glo) [2] [nM]","IC50 at 96 h, cell-killing of CHO-ALPL cells [3] [nM]","IC50 at 96 h, cell-killing of CHO-ALPPL2 cells [4] [nM]","IC50 at 96 h, cell-killing of CHO-ALPP cells [5] [nM]","IC50 at 96 h, cell-killing of CHO-ALPI cells [6] [nM]"
"A06 E10-hFc (S239C F405L/K409R) conjugated to MC-vc-PAB-MMAE (Fc fusion, DAR 2, MC-vc-PAB-MMAE on Cys 239 (S239C, EU numbering)) chain 1: QVHLVESGGGLVQAGGSLRLSCAASGRTFLSMGWFRQAPGKEREFVAAISWTGGSTGYADSVKGRFTISRESDKETMYLQMNSLKPEDTAVYYCAARGDVYYGGDDATRYKYWGQGTQVTVSSGGGGSGGGGSGGGGS[human IgG1 Fc with changes not spelt out] chain 2: QVQLVESGGGLVQAGGSLRLSCAVSGRALSDYNIGWFRQAPGKEREFVARKTWDGSSTRYDDSVKGRFTVSIEDAKNTAYLQMSSLKTEDTAVYYCAAGRYSRARGWEYDYWGQGTQVTVSSGGGGSGGGGSGGGGS[human IgG1 Fc with changes not spelt out]",18.8,34.9,,,,
"A06 E06-hFc (S239C F405L/K409R) conjugated to MC-vc-PAB-MMAE (Fc fusion, DAR 2, MC-vc-PAB-MMAE on Cys 239 (S239C, EU numbering)) chain 1: QVHLVESGGGLVQAGGSLRLSCAASGRTFLSMGWFRQAPGKEREFVAAISWTGGSTGYADSVKGRFTISRESDKETMYLQMNSLKPEDTAVYYCAARGDVYYGGDDATRYKYWGQGTQVTVSSGGGGSGGGGSGGGGS[human IgG1 Fc with changes not spelt out] chain 2: QVHLVESGGGLVQAGGSLRLSCAASRRSFSEYAMGWFRQAPGKEREFVAAIGWSGVIEYADSVKGRFTISRDNAKDTVYLQMNSLKPEDTAVYYCAAGLGIRVVSQTPAYWGQGTQVTVSSGGGGSGGGGSGGGGS[human IgG1 Fc with changes not spelt out]",27.1,23.8,,,,
"D10 F05-hFc (S239C F405L/K409R) conjugated to MC-vc-PAB-MMAE (Fc fusion, DAR 2, MC-vc-PAB-MMAE on Cys 239 (S239C, EU numbering)) chain 1: QVQLVESGGGLVQPGGSLRLSCAASGSIFSVNTMGWYRQAPGKQRDLVAVATSGGTIHYADSVKGRFTISRDNAKNTVYLQMNSLKPEDTAVYYCNLVVPYGMIAGDHDYWGQGTKVTVSSGGGGSGGGGSGGGGS[human IgG1 Fc with changes not spelt out] chain 2: QVQLVESGGGLVQAGGSLRLSCAASGRAFGDYNIGWFRQAPGKEREFVARRTWDGSSTRYDDSVKGRFTVSIDNAKNTAYLQMNSLKTEDTAVYYCAAGRYSRVRGWEYDYWGQGTQVTVSSGGGGSGGGGSGGGGS[human IgG1 Fc with changes not spelt out]",37.2,38.6,,,,
"D10 E10-hFc (S239C T366Y/Y407T), [G4S]3 linker, MA-PEG4-vc-PAB-EDA-PNU159682 conjugate, #880 (Fc fusion, DAR 2.02, MA-PEG4-vc-PAB-EDA-PNU159682 on Cys of S239C (EU numbering)) chain 1: QVQLVESGGGLVQPGGSLRLSCAASGSIFSVNTMGWYRQAPGKQRDLVAVATSGGTIHYADSVKGRFTISRDNAKNTVYLQMNSLKPEDTAVYYCNLVVPYGMIAGDHDYWGQGTKVTVSSGGGGSGGGGSGGGGS[human IgG1 Fc with C220S S239C T366Y (EU numbers) not spelt out] chain 2: QVQLVESGGGLVQAGGSLRLSCAVSGRALSDYNIGWFRQAPGKEREFVARKTWDGSSTRYDDSVKGRFTVSIEDAKNTAYLQMSSLKTEDTAVYYCAAGRYSRARGWEYDYWGQGTQVTVSSGGGGSGGGGSGGGGS[human IgG1 Fc with C220S S239C Y407T (EU numbers) not spelt out]",,,774,2.9,3.2,549
"A06 F05-hFc (S239C T366Y/Y407T), [G4S]3 linker, MA-PEG4-vc-PAB-EDA-PNU159682 conjugate, #883 (Fc fusion, DAR 2.03, MA-PEG4-vc-PAB-EDA-PNU159682 on Cys of S239C (EU numbering)) chain 1: QVHLVESGGGLVQAGGSLRLSCAASGRTFLSMGWFRQAPGKEREFVAAISWTGGSTGYADSVKGRFTISRESDKETMYLQMNSLKPEDTAVYYCAARGDVYYGGDDATRYKYWGQGTQVTVSSGGGGSGGGGSGGGGS[human IgG1 Fc with C220S S239C T366Y (EU numbers) not spelt out] chain 2: QVQLVESGGGLVQAGGSLRLSCAASGRAFGDYNIGWFRQAPGKEREFVARRTWDGSSTRYDDSVKGRFTVSIDNAKNTAYLQMNSLKTEDTAVYYCAAGRYSRVRGWEYDYWGQGTQVTVSSGGGGSGGGGSGGGGS[human IgG1 Fc with C220S S239C Y407T (EU numbers) not spelt out]",,,858,2.2,5.7,513
"D10 E06-hFc (S239C T366Y/Y407T), [G4S]3 linker, MA-PEG4-vc-PAB-EDA-PNU159682 conjugate, #881 (Fc fusion, DAR 2.02, MA-PEG4-vc-PAB-EDA-PNU159682 on Cys of S239C (EU numbering)) chain 1: QVQLVESGGGLVQPGGSLRLSCAASGSIFSVNTMGWYRQAPGKQRDLVAVATSGGTIHYADSVKGRFTISRDNAKNTVYLQMNSLKPEDTAVYYCNLVVPYGMIAGDHDYWGQGTKVTVSSGGGGSGGGGSGGGGS[human IgG1 Fc with C220S S239C T366Y (EU numbers) not spelt out] chain 2: QVHLVESGGGLVQAGGSLRLSCAASRRSFSEYAMGWFRQAPGKEREFVAAIGWSGVIEYADSVKGRFTISRDNAKDTVYLQMNSLKPEDTAVYYCAAGLGIRVVSQTPAYWGQGTQVTVSSGGGGSGGGGSGGGGS[human IgG1 Fc with C220S S239C Y407T (EU numbers) not spelt out]",,,867,4.6,5.9,600
"D10 F05-hFc (S239C T366Y/Y407T), [G4S]3 linker, MA-PEG4-vc-PAB-EDA-PNU159682 conjugate, #882 (Fc fusion, DAR 1.94, MA-PEG4-vc-PAB-EDA-PNU159682 on Cys of S239C (EU numbering)) chain 1: QVQLVESGGGLVQPGGSLRLSCAASGSIFSVNTMGWYRQAPGKQRDLVAVATSGGTIHYADSVKGRFTISRDNAKNTVYLQMNSLKPEDTAVYYCNLVVPYGMIAGDHDYWGQGTKVTVSSGGGGSGGGGSGGGGS[human IgG1 Fc with C220S S239C T366Y (EU numbers) not spelt out] chain 2: QVQLVESGGGLVQAGGSLRLSCAASGRAFGDYNIGWFRQAPGKEREFVARRTWDGSSTRYDDSVKGRFTVSIDNAKNTAYLQMNSLKTEDTAVYYCAAGRYSRVRGWEYDYWGQGTQVTVSSGGGGSGGGGSGGGGS[human IgG1 Fc with C220S S239C Y407T (EU numbers) not spelt out]",,,880,3.5,3.6,586
"D10 E06-hFc (S239C T366Y/Y407T), [G4S]1 linker, MA-PEG4-vc-PAB-EDA-PNU159682 conjugate, #884 (Fc fusion, DAR 2.03, MA-PEG4-vc-PAB-EDA-PNU159682 on Cys of S239C (EU numbering)) chain 1: QVQLVESGGGLVQPGGSLRLSCAASGSIFSVNTMGWYRQAPGKQRDLVAVATSGGTIHYADSVKGRFTISRDNAKNTVYLQMNSLKPEDTAVYYCNLVVPYGMIAGDHDYWGQGTKVTVSSGGGGS[human IgG1 Fc with C220S S239C T366Y (EU numbers) not spelt out] chain 2: QVHLVESGGGLVQAGGSLRLSCAASRRSFSEYAMGWFRQAPGKEREFVAAIGWSGVIEYADSVKGRFTISRDNAKDTVYLQMNSLKPEDTAVYYCAAGLGIRVVSQTPAYWGQGTQVTVSSGGGGS[human IgG1 Fc with C220S S239C Y407T (EU numbers) not spelt out]",,,724,4.3,3.4,525
"D10 F05-hFc (S239C T366Y/Y407T), [G4S]1 linker, MA-PEG4-vc-PAB-EDA-PNU159682 conjugate, #886 (Fc fusion, DAR 2.01, MA-PEG4-vc-PAB-EDA-PNU159682 on Cys of S239C (EU numbering)) chain 1: QVQLVESGGGLVQPGGSLRLSCAASGSIFSVNTMGWYRQAPGKQRDLVAVATSGGTIHYADSVKGRFTISRDNAKNTVYLQMNSLKPEDTAVYYCNLVVPYGMIAGDHDYWGQGTKVTVSSGGGGS[human IgG1 Fc with C220S S239C T366Y (EU numbers) not spelt out] chain 2: QVQLVESGGGLVQAGGSLRLSCAASGRAFGDYNIGWFRQAPGKEREFVARRTWDGSSTRYDDSVKGRFTVSIDNAKNTAYLQMNSLKTEDTAVYYCAAGRYSRVRGWEYDYWGQGTQVTVSSGGGGS[human IgG1 Fc with C220S S239C Y407T (EU numbers) not spelt out]",,,831,2.7,3.5,552
"D10 E10-hFc (S239C T366Y/Y407T), [G4S]1 linker, MA-PEG4-vc-PAB-EDA-PNU159682 conjugate, #885 (Fc fusion, DAR 2.02, MA-PEG4-vc-PAB-EDA-PNU159682 on Cys of S239C (EU numbering)) chain 1: QVQLVESGGGLVQPGGSLRLSCAASGSIFSVNTMGWYRQAPGKQRDLVAVATSGGTIHYADSVKGRFTISRDNAKNTVYLQMNSLKPEDTAVYYCNLVVPYGMIAGDHDYWGQGTKVTVSSGGGGS[human IgG1 Fc with C220S S239C T366Y (EU numbers) not spelt out] chain 2: QVQLVESGGGLVQAGGSLRLSCAVSGRALSDYNIGWFRQAPGKEREFVARKTWDGSSTRYDDSVKGRFTVSIEDAKNTAYLQMSSLKTEDTAVYYCAAGRYSRARGWEYDYWGQGTQVTVSSGGGGS[human IgG1 Fc with C220S S239C Y407T (EU numbers) not spelt out]",,,800,3.2,4,579
